{"source": "PubChem BioAssay AID1508642", "about": "(National Center for Advancing Translational Sciences (NCATS), 2021)", "note": "The whole screen tested about 43,000 compounds, of which about 200 (0.47%) were called active. Roughly 12% stayed inconclusive and do not appear here. The call rests on the fitted dose curve; in most records, active means well fitted cell-killing curve with a large enough effect; inconclusive means small, poorly fitted or top-dose-only effect, or effect the other way; inactive means flat fitted curve, though single readings scatter. The list shows a part of the results. On the % scale 0 is the no-effect control and ±100 the full control effect.", "data": [{"test": "Cell viability qHTS assay in S16 Pmp22-F2sN cells; further: nearly all actives have a fitted effect of over 65% in size", "conditions": "S16 Pmp22-F2sN Schwann cells viability, CellTiter-Glo, 24 h; series mostly up to 57.5 µM; activity change, negative = cytotoxicity: at the top concentration", "procedure,_shortened": "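S16 Pmp22-F2sN Schwann cells (500-1,000/well) in phenol-red-free DMEM with 10% FBS received 23 nL compound by pin tool for 24 h at 37 °C. Viability was then read as CellTiter-Glo luminescence after 15 min at room temperature.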", "values": [{"smiles": "CCCCN(C)C(=O)C(Cc1ccccc1)NS(=O)(=O)c1ccc2c(c1)c(=O)n(C)c(=O)n2C", "note": "(stereo not drawn)", "activity change, negative = cytotoxicity": "inactive: 0.188%"}, {"smiles": "COc1ccc(-c2nnc(SCC(=O)Oc3c(C)cccc3C)o2)cc1OC", "activity change, negative = cytotoxicity": "inactive: 0.0992%"}, {"smiles": "Cc1oc(-c2cccc(Cl)c2)nc1CN1CCCC(C(=O)NCc2ccc(F)cc2)C1", "note": "(stereo not drawn)", "activity change, negative = cytotoxicity": "inactive: -16.3%"}, {"smiles": "CC(C)OCCCNC(=O)c1ccc2c(=O)n(CCc3ccccc3)c(=O)[nH]c2c1", "activity change, negative = cytotoxicity": "inactive: 3.34%"}, {"smiles": "Cc1coc2c1c(C)cc1oc(=O)cc(C)c12", "activity change, negative = cytotoxicity": "inactive: -14.9%"}, {"smiles": "COc1ccc(N(CC(=O)NCc2ccc(F)cc2)S(=O)(=O)c2c(C)n[nH]c2C)cc1", "activity change, negative = cytotoxicity": "inactive: 2.53%"}, {"smiles": "COc1ccc(OCCCn2c(=O)oc3ccc(C)cc32)cc1", "activity change, negative = cytotoxicity": "inactive: 8.14%"}, {"smiles": "CCc1ccc(NC(=O)c2ccc(F)c(S(=O)(=O)N3CCC(C)CC3)c2)cc1", "activity change, negative = cytotoxicity": "inactive: 0.19%"}, {"smiles": "COc1cc2c(cc1NS(=O)(=O)c1cccc(C#N)c1)n(C)c(=O)n2C", "activity change, negative = cytotoxicity": "inactive: 1.44%"}, {"smiles": "Cc1cc(C)cc(NC(=O)CN2C(=O)c3ccccc3Sc3ccc(C(=O)N4CCOCC4)cc32)c1", "activity change, negative = cytotoxicity": "inactive: 16.2%"}, {"smiles": "Cc1ccc(C)c(Cn2nnc(C(=O)NCc3ccc(Cl)cc3Cl)c2N)c1", "activity change, negative = cytotoxicity": "inactive: -0.289%"}, {"smiles": "Cc1cn(C)c(CC(=O)Nc2cccc(Cl)c2C)c1C(=O)O", "activity change, negative = cytotoxicity": "inactive: 1.31%"}, {"smiles": "CCCCNS(=O)(=O)c1ccc2nc(NC(=O)c3cccnc3)sc2c1", "activity change, negative = cytotoxicity": "inactive: -24.1%"}, {"smiles": "Cc1ccc(CNC(=O)c2ccc(CSCc3ccc(Cl)cc3)o2)cc1", "activity change, negative = cytotoxicity": "inactive: 0.166%"}, {"smiles": "O=C(Nc1cc(C(F)(F)F)ccc1Cl)c1cc2nc(-c3ccc4c(c3)OCO4)cc(C(F)(F)F)n2n1", "activity change, negative = cytotoxicity": "inactive: -4.54%"}, {"smiles": "Cn1c(=O)oc2cc(S(=O)(=O)N3CCCC(C(=O)Nc4ccc(Br)cc4F)C3)ccc21", "note": "(stereo not drawn)", "activity change, negative = cytotoxicity": "inactive: 14.7%"}, {"smiles": "CCOc1ccccc1C(=O)Nc1c(NC)c2ccccc2oc1=O", "activity change, negative = cytotoxicity": "inactive: 2.02%"}, {"smiles": "O=C(NCc1cccc(F)c1)C1=Cc2cc(Br)ccc2OC1", "activity change, negative = cytotoxicity": "inactive: 3.05%"}, {"smiles": "Cc1ccc(-n2ccnc(NCc3ccccc3)c2=O)cc1C", "activity change, negative = cytotoxicity": "inactive: -11.7%"}, {"smiles": "CCCCN(Cc1ccccc1)C(=O)c1oc(=O)c2ccccc2c1-c1ccc(C)cc1", "activity change, negative = cytotoxicity": "inactive: -18.4%"}, {"smiles": "CCn1c(C(=O)N2CCC(C(=O)NCCc3ccccc3)CC2)cc2sccc21", "activity change, negative = cytotoxicity": "inactive: 4.85%"}, {"smiles": "CCC(Sc1nnc(-c2ccc(OC)cc2)c(-c2ccc(OC)cc2)n1)C(=O)NC1CCCCC1", "note": "(stereo not drawn)", "activity change, negative = cytotoxicity": "inactive: 2.68%"}, {"smiles": "Cc1ccc(-n2c3nc(=O)n(C)c(=O)c-3cc3c(Cl)cccc32)c(C)c1", "activity change, negative = cytotoxicity": "inactive: -2.08%"}, {"smiles": "Cc1ccc(NS(=O)(=O)c2ccc(NC(=O)N3CCCC3)cc2)cc1C", "activity change, negative = cytotoxicity": "inactive: -1.63%"}, {"smiles": "COc1cccc(N2CC(NC(=O)/C=C\\c3ccc4c(c3)OCO4)CC2=O)c1", "note": "(stereo not drawn)", "activity change, negative = cytotoxicity": "inactive: 5.77%"}, {"smiles": "COc1ccc(N2CC(NC(=O)c3ccc(S(=O)(=O)N4CCCC4)cc3)CC2=O)cc1", "note": "(stereo not drawn)", "activity change, negative = cytotoxicity": "inactive: 3.29%"}, {"smiles": "CCOC(=O)c1ccc(NC(=O)C(CC)Sc2nc3ncccc3[nH]2)cc1", "note": "(stereo not drawn)", "activity change, negative = cytotoxicity": "inactive: 1.1%"}, {"smiles": "COc1ccc(-n2nc(C(=O)N3CCN(c4ccccc4OC)CC3)c3c4ccccc4n(C)c3c2=O)cc1", "activity change, negative = cytotoxicity": "inactive: 9.8%"}, {"smiles": "COc1cccc(CNC(=O)c2ccc(Cn3c(SCc4ccccc4)nc4cccnc43)cc2)c1", "activity change, negative = cytotoxicity": "inactive: -29.3%"}, {"smiles": "COc1cc(Cl)ccc1Nc1ncc(C(=O)N2CCN(c3ccccc3OC)CC2)c2ccccc12", "activity change, negative = cytotoxicity": "inactive: 19.7%"}, {"smiles": "Cc1ccc(C(=O)N2CCC(c3c[nH]c4ccccc34)(c3c[nH]c4ccccc34)CC2)cc1", "activity change, negative = cytotoxicity": "inactive: -2.25%"}, {"smiles": "Cn1nccc1C(=O)NCc1ccc2c(c1)CCN2C(=O)c1ccc(F)cc1", "activity change, negative = cytotoxicity": "inactive: 8.14%"}, {"smiles": "COc1cc(NC(=O)CCc2c(C)nc3nc(-c4cc(OC)cc(OC)c4)nn3c2C)cc(OC)c1", "activity change, negative = cytotoxicity": "inactive: 1.83%"}, {"smiles": "Cc1nc2ccccc2n1CC(O)COc1ccc(C(=O)O)cc1", "note": "(stereo not drawn)", "activity change, negative = cytotoxicity": "inactive: -0.0787%"}, {"smiles": "O=C(CSc1nc(-c2ccccc2)nc2c1CCCC2)c1ccc(F)cc1", "activity change, negative = cytotoxicity": "inactive: 12.2%"}, {"smiles": "CCC(=O)N1c2ccc(S(=O)(=O)NCc3cccc(OC)c3)cc2CC1C", "note": "(stereo not drawn)", "activity change, negative = cytotoxicity": "inactive: 5.45%"}, {"smiles": "Cc1ccc(S(=O)(=O)c2nc(-c3ccco3)oc2SC(C)c2ccccc2)cc1", "note": "(stereo not drawn)", "activity change, negative = cytotoxicity": "inactive: -3.14%"}, {"smiles": "Nc1c(-c2nc(-c3ccc(Cl)cc3)no2)nnn1-c1ccc(C(F)(F)F)c(Cl)c1", "activity change, negative = cytotoxicity": "inactive: -0.0859%"}, {"smiles": "COc1cc(NC(=O)c2cc(C3CC3)nc3c2c(C)nn3-c2ccc(C)cc2)cc(OC)c1", "activity change, negative = cytotoxicity": "inactive: -9.5%"}, {"smiles": "Cc1cccc(C)c1OCc1nc2c3cnn(-c4ccccc4Br)c3ncn2n1", "activity change, negative = cytotoxicity": "inactive: 6.05%"}, {"smiles": "O=C(CSc1nc2c([nH]c3ccccc32)c(=O)n1-c1ccc(F)cc1)N1CCCc2ccccc21", "activity change, negative = cytotoxicity": "inactive: 17.8%"}, {"smiles": "CCOC(=O)Cn1c(=O)n(C2CCCCC2)c2nc(-c3ccccc3Cl)nc(C(N)=O)c21", "activity change, negative = cytotoxicity": "inactive: 23.1%"}, {"smiles": "CCC(CC)C(=O)Nc1nnc2n1CCS2", "activity change, negative = cytotoxicity": "inactive: 1.62%"}, {"smiles": "CCOC(=O)CC(NC(=O)c1cc2c(=O)n3cccc(C)c3nc2s1)c1ccc(OCC(C)C)c(OC)c1", "note": "(stereo not drawn)", "activity change, negative = cytotoxicity": "inactive: 1.43%"}, {"smiles": "COc1ccc(CCN2C(=O)c3[nH]nc(-c4ccccc4O)c3C2c2ccc(O)c(OC)c2)cc1", "note": "(stereo not drawn)", "activity change, negative = cytotoxicity": "inactive: -20.3%"}, {"smiles": "COc1ccc(-c2c(C)nn3c(-c4ccccc4)cc(-c4ccccc4)nc23)cc1OC", "activity change, negative = cytotoxicity": "inactive: 3.11%"}, {"smiles": "O=C(NC1CCCCC1)c1cc(Nc2ccccc2)nc2ccccc12", "activity change, negative = cytotoxicity": "inactive: 3.12%"}, {"smiles": "COC(=O)c1ccc(NC(=O)CCNS(=O)(=O)c2cccc3nsnc23)cc1", "activity change, negative = cytotoxicity": "inactive: -1.01%"}]}]}
